Assay results published in PubChem BioAssay AID1460 (National Center for Advancing Translational Sciences (NCATS), 2008).
The whole screen tested about 270,000 compounds, of which about 5,800 (2.1%) were called active. The inconclusive results got no clear call from the source; some entries with a clear call stand among them for comparison. Calls come from the whole dose curve; as a rule, active = well fitted inhibition curve with a large enough effect; inconclusive = small, poorly fitted or top-dose-only effect; inactive = flat fitted curve, though single readings scatter. A potency beside an inconclusive call is a rough fit, not a confirmed value.

molecular target: Microtubule-associated protein tau (Homo sapiens) (UniProt P10636); assay: qHTS for Inhibitors of Tau Fibril Formation, Thioflavin T Binding; conditions: recombinant tau K18 P301L (four-repeat tau fragment), heparin-induced fibrillization, ThT fluorescence; series mostly up to 57.4 µM; activity, negative = inhibition: at the top concentration; note: nearly all actives have a fitted effect of over 55% in size
Sequence of UniProt P10636 (P10636 whole entry, looked up, the tested form may be a part): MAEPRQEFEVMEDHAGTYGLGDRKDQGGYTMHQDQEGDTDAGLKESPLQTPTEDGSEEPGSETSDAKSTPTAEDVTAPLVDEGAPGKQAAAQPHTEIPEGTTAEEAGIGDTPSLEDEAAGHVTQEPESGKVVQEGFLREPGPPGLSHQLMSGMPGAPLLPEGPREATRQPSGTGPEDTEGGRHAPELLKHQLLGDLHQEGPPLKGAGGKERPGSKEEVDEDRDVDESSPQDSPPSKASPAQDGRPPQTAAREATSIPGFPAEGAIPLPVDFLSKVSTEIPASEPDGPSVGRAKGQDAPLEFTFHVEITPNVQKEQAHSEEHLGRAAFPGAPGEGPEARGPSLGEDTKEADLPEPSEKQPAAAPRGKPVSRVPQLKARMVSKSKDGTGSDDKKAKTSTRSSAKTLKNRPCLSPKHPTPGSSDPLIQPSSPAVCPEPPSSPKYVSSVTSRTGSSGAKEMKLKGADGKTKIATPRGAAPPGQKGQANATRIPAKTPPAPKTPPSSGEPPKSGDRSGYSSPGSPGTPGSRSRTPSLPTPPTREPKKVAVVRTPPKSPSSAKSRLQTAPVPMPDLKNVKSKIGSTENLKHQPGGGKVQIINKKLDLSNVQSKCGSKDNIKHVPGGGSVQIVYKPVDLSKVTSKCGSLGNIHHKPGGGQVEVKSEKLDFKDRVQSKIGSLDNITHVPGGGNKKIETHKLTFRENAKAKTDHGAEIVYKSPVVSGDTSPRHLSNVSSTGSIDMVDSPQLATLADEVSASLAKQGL
How it was run: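 In this qHTS, human K18 P301L tau is incubated with compound and heparin for 6 hr at 37 C, and Thioflavin T fluorescence then reports fibril load.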
% is set by controls: 0 for no effect and ±100 for the full control effect; potency is the fitted concentration of half-maximal effect; tags give direction and shape of the fitted curve.

Row | SMILES | Potency | activity, negative = inhibition
1 | COc1cc(NC(=O)Cn2c(=O)n(CC(=O)NCCc3ccc(OC)c(OC)c3)c(=O)c3sccc32)cc(OC)c1 | inconclusive: 3.98 µM [activator, single point] | –
2 | Cc1nc(-c2ccc(S(=O)(=O)N3CCN(c4cccc(Cl)c4)CC3)cc2)co1 | – | inactive: 3.09%
3 | Cc1ccc(C)n1-c1cccc(N)c1 | active: 15.8 µM | –
4 | CCOC(=O)N1CCN(C(=O)/C=C/c2c(C)nn(-c3ccc(F)cc3)c2Cl)CC1 | inconclusive: 17.8 µM [inhibitor, single point] | –
5 | Cc1ccccc1Nc1sc(C(=O)c2ccc(F)cc2)c(N)c1C(=O)NCCc1ccccc1 | inconclusive: 12.6 µM [inhibitor, partial curve, poor fit] | –
6 | CCN1/C(=C\C(=S)Nc2ccccc2)Sc2ccccc21 | active: 7.94 µM | –
7 | O=C(N/N=C/c1ccc(-c2ccc([N+](=O)[O-])cc2)o1)c1cccnc1 | inconclusive: 3.16 µM [inhibitor, full curve] | –
8 | CCOC(=O)C1=NN(C(=O)c2ccc(OC)cc2)C(O)(c2ccc(Cl)cc2)C1 (stereo not drawn) | inconclusive: 31.6 µM [inhibitor, single point] | –
9 | O=C(O)c1cc(-n2nnnc2SCc2ccccc2F)ccc1Cl | – | inactive: -3.57%
10 | CC(C)(C)NC(=O)Cc1ccc(S(=O)(=O)N2CCCC2)s1 | – | inactive: -15.3%
11 | Cc1cc(N2CCN(C)CC2)nc2ccc(NC(=S)N3CCN(c4ccc(F)cc4)CC3)cc12 | inconclusive: 4.47 µM [inhibitor, partial curve] | –
12 | c1cncc(Nc2nc(-c3cccs3)cs2)c1 | inconclusive: 14.1 µM [inhibitor, partial curve] | –
13 | COc1ccc(-c2cn[nH]c2-c2ccc(OCc3ccc([N+](=O)[O-])cc3)cc2O)cc1 | inconclusive: 39.8 µM [inhibitor, single point] | –
14 | O=C1/C(=C/c2cccs2)CCc2ccccc21 | inconclusive: 17.8 µM [inhibitor, partial curve] | –
15 | Nc1nc(CCl)nc(Nc2ccccc2)n1 | inconclusive: 35.5 µM [inhibitor, single point] | –
16 | COc1ccc2cc(CCNC(=O)c3ccc(Br)o3)c(=O)[nH]c2c1 | inconclusive: 39.8 µM [inhibitor, single point] | –
17 | CC1CCCN(C(=O)CCc2ccccc2)C1 (stereo not drawn) | – | inactive: -10.6%
18 | N/C(=N\OC(=O)/C=C/c1ccccc1Cl)c1ccncc1 | inconclusive: 3.55 µM [inhibitor, partial curve] | –
19 | CCCCc1nc2c(c3c1CC(C)OC3)CN(CCC(C)C)CC2 (stereo not drawn) | – | inactive: -12.1% [at 11.5 µM]
20 | CC(=O)Nc1sc2c(c1C#N)CCCC2 | – | inactive: -3.4%
21 | CCCCNC(=S)N1CCN(c2nc3ccccc3s2)CC1 | inconclusive: 3.16 µM [inhibitor, full curve] | –
22 | Cc1cccc(C(=O)Nc2nnc(S(=O)(=O)N(C)Cc3ccc(Cl)cc3)s2)c1 | – | inactive: 11%
23 | C(=N\N1CCN(C2c3ccccc3-c3ccccc32)CC1)/c1cccnc1 | inconclusive: 35.5 µM [inhibitor, single point] | –
24 | COc1ccc(-c2cc(-c3ccccc3O)[nH]n2)cc1OC | inconclusive: 39.8 µM [activator, single point] | –

Row | SMILES | Potency | activity, negative = inhibition
25 | CCCC(=O)NC(NC(=S)Nc1ccc(N=Nc2ccccc2)cc1)C(Cl)(Cl)Cl (stereo not drawn) | active: 14.1 µM | –
26 | COc1ccc(-c2nc3ccc([N+](=O)[O-])cc3[nH]2)cc1 | active: 11.2 µM | –
27 | CSc1nc(Nc2ccc(C)cc2C)cc(-c2ccccc2)n1 | – | inactive: -5.94%
28 | Cc1cc(C)cc(Cn2ncc(Cl)c(Cl)c2=O)c1 | inconclusive: 25.1 µM [inhibitor, single point] | –
29 | Cc1ccc(/C=C2\SC(=S)N(CC3CCCO3)C2=O)o1 (stereo not drawn) | active: 15.8 µM | –
30 | Cc1nc2cc(C(=O)NCCC3=CCCCC3)ccc2n1-c1ccc(Br)cc1 | inconclusive: 20 µM [inhibitor, single point] | –
31 | Cc1cc(C)c(NC(=O)CCN2C(=O)c3ccccc3Sc3ncccc32)c(C)c1 | – | inactive: 1.23%
32 | O=C(N/N=C/c1ccc(O)cc1)c1csc2c1CCCC2 | inconclusive: 25.1 µM [inhibitor, partial curve] | –
33 | Cc1nc(NC(=O)COC(=O)C(NC(=O)c2ccco2)C(C)C)c(Cl)cc1Cl (stereo not drawn) | – | inactive: -12.4%
34 | Fc1cccc(-c2cc3nc4c(c(N5CCC6(CC5)OCCO6)n3n2)CCCC4)c1 | inconclusive: 39.8 µM [inhibitor, single point] | –
35 | CCOc1ccc(C(=O)NCc2nnnn2-c2ccc(C)c(C)c2)cc1OCC | – | inactive: 7.32%
36 | Cc1cc2nc(/C(C#N)=C/c3ccncc3)[nH]c2cc1C | inconclusive: 28.2 µM [inhibitor, partial curve] | –
37 | O=C(CN(c1ccc(Cl)cc1)S(=O)(=O)c1ccc(Cl)c([N+](=O)[O-])c1)NCCc1ccc(F)cc1 | – | inactive: -1.78%
38 | Cc1cccc2c1OCC/C2=N\NC(=O)COc1ccccc1 | inconclusive: 35.5 µM [inhibitor, partial curve] | –
39 | O=C(CNc1ccccc1)NNC1=NCCC1 | – | inactive: -5.28%
40 | COc1cc(/C=C2\SC(c3ccc(C)cc3)=NC2=O)cc(OC)c1O | active: 5.01 µM | –
41 | CCn1c(SCC(=O)c2ccc(Cl)cc2)nnc1-c1cccs1 | inconclusive: 31.6 µM [inhibitor, single point] | –
42 | CCc1cc(-c2n[nH]c(C)c2-c2nc3ccccc3n2C)c(O)cc1O | – | inactive: -4.03%
43 | CCCS(=O)(=O)N1CCN(Cc2ccc3c(c2)c2ccccc2n3CC)CC1 | inconclusive: 20 µM [inhibitor, single point] | –
44 | CCCCCCCCCCCCC(=O)CCCCC(=O)O | inconclusive: 35.5 µM [inhibitor, single point] | –
45 | CN(C)c1ccc(-c2nc3n(n2)C(c2cccnc2)C2=C(CC(C)(C)CC2=O)N3)cc1 (stereo not drawn) | inconclusive: 20 µM [inhibitor, partial curve] | –
46 | O=c1cc(CSc2nnnn2-c2ccc(O)cc2)nc2sccn12 | – | inactive: 7.32%
47 | Cc1cc(C(=O)CSc2nnc(N)s2)c(C)n1CCc1ccc(Cl)cc1 | inconclusive: 28.2 µM [inhibitor, single point] | –
48 | N#Cc1nc(-c2ccc(COc3ccccc3)o2)oc1NCc1cccnc1 | inconclusive: 20 µM [inhibitor, single point] | –
